# Measurements reported in article PMC12136788.
# This is one part of the list.
# T1: UNK ZnF1-3 (human, UniProt Q9C0B0 31-174)
# T1 sequence: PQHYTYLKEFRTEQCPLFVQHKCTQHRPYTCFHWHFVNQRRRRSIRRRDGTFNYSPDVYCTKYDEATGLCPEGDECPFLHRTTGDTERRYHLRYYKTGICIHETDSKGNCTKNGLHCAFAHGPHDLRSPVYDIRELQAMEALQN
# B1: chr1:243289802:243289803:-_ENSG00000143702_ENST00000366542|hu_hu|FALSE|FALSE (ssRNA)
# RNA: GGGAGUUCUACAGUCCGACGAUCAAGAGAAAGUCAUUCUUGUACUGUAACAUCUUCCUCUUCCCCAUCGGGGUUGAAUCUAUUGAAAUGUAUACUGAAAUCAGCCUCAGAUUCAGCAUUCUCAAAUUCAGCUGCGGCUGAAACCAACAGAGGAUUGAGCAUCA
# B2: chr13:41657021:41657022:+_ENSG00000120688_ENST00000379487|hu_hu|FALSE|FALSE (ssRNA)
# RNA: GGGAGUUCUACAGUCCGACGAUCGGUGUAUAAGUCUCCAUUCUGUCCUAAAAGCAUGUACAAAAAGCUCUCCUGCAACUAUUGAUCAUCACCUCGUUGCCUUAAAUUUCUAGAUUUUCCAUUUUCAGUUCUUCUCUUUUUGAACAACAGAGGAUUGAGCAUCA
# B3: chr2:48026839:48026840:+_ENSG00000116062_ENST00000540021|hu_hu|hu_hu_hu_mus_False|28_68 (ssRNA)
# RNA: GGGAGUUCUACAGUCCGACGAUCAUAGUGAGCCACUAGCGUCCUAAAUCUGGAACAGUGGCGGUCAUCUGAAAACUGGCCGAUGAAAAACUUGCCCAGUGAAGUGUCAACAAAGCAAACACCAUACACACGAGUGUGACCAGACAACAGAGGAUUGAGCAUCA
# B4: chr15:102110757:102110758:+_ENSMUSG00000045665_ENSMUST00000051341|mus_mus|FALSE|FALSE (ssRNA)
# RNA: GGGAGUUCUACAGUCCGACGAUCGUAGGGAGCUUGGAGCCAGUCCGCUGCCAGGGCCAGAAAGUAGACUUGAUAGAAGUCUAGUUGAAACUGAAGGAAGGAGGGGUUGCUGCAAGCUCUUCCAGGGGGCCUGGCUCUGCAUCUCAACAGAGGAUUGAGCAUCA
# B5: chr20:61576232:61576233:+_ENSG00000101193_ENST00000266069|hu_mus|FALSE|FALSE (ssRNA)
# RNA: GGGAGUUCUACAGUCCGACGAUCCAGUGCUGGGUCCAUGCACAGGCUCUACUUGGGCUCCUCAAUCACACCUUUGCUGAGGUCUGUCAUUUUGGGAUAUUUUACUUUCUUCUGGUCUAGCUCAUUCUGAGCCCAAAGUAGCAGCAACAGAGGAUUGAGCAUCA
# B6: chr8:67243003:67243004:-_ENSMUSG00000031605_ENSMUST00000034017|mus_hu|FALSE|FALSE (ssRNA)
# RNA: GGGAGUUCUACAGUCCGACGAUCGUCACUUGAGAUUAAGCUGCACACUUGUUCGAUGCCAAGAUUGAGAAAUUCUUCACUAAGUACAACAUCUGCAAAAUGUUGCUCUGCAUAGGUGUUGGCCUUGUUCAGAAGGUCGGUACACAACAGAGGAUUGAGCAUCA
# Target: T1, UNK ZnF1-3
# Experiment: nsRBNS (natural sequence RNA bind-n-seq); RBNS binding buffer (assumed for nsRBNS): 25 mM Tris pH 7.5, 150 mM KCl, 3 mM MgCl2, 0.01% Triton X-100, 500 ug/ml BSA, 20 U/ml SUPERase-In, 4 C; UNK is unkempt and MSI1 is Musashi-1; names of the RNAs are library labels; protein concentration not given here; high values mean tight binding
row,Binder,binding signal [enrichment R]
1,B1,0.519
2,B2,1.1
3,B3,1.41
4,B4,0.621
5,B5,0.641
6,B6,0.728
